Test results taken from the supplement of paper PMC4466236.
Over roughly 33,000 sequences, “E-score (dimensionless, -0.5 to 0.5)” has its median near -0.058; the highest 2% begin near 0.35. The list shows a part of the results.

Test system: MvaT
Assay: PBM 8-mer E-score (mean of HK and ME arrays) (E-score (dimensionless, -0.5 to 0.5)); higher = stronger relative binding preference; most listed sequences are background and not binding sites
Summary of the method: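 Full-length P. aeruginosa MvaT carrying an N-terminal glutathione S-transferase tag was tested by protein binding microarray following a previously described protocol. Two universal double-stranded 60-mer arrays, ME and HK, were used, each with a constant 25-mer primer region and a variable 35-mer region covering all 8-mers. The rank-based E-score is the mean of the two arrays, parsed with a custom script. Its range runs from -0.5 to 0.5 for each 8-mer.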

Sequence	PBM 8-mer E-score
AATTTCAG	0.129
AATAACCG	0.367
ATAACTTG	0.38
TCCGTCAA	-0.111
ATTTACAA	0.3
AGCCAAGG	-0.255
AAAACTTA	0.386
CCTTGCCC	-0.283
AACCAGCC	0.0115
AGATTCAC	-0.0072
ATCCAAAC	0.0402
CGGCGCGC	-0.236
AGTTCCAC	-0.137
CAAAAAAA	0.0674
CATCAGCG	-0.233
TATATGGA	0.344
ACGTGTTC	-0.194
TACGCTAA	0.171
CAATAACG	0.169
AACCCCTC	-0.241
CCGTAGAC	-0.19
ACCTTCCT	-0.224
CAGTTATA	0.36
TAGTACCA	-0.031
CGCTCGGA	-0.241

Sequence	PBM 8-mer E-score
CCAAGTGG	-0.123
GTATTGCA	0.0858
TATATTCA	0.373
TCTGTGAA	-0.05
CCCGATAA	0.0712
TGAGAGAA	-0.118
AGACGGTC	-0.218
CACGTACG	-0.136
CCCTCTAA	-0.178
CAACTCGC	0.0451
ATAGCGAA	0.154
GTCACAGA	-0.0922
CTTGTCCA	-0.104
CAACAATC	0.227
CGTCCGTA	-0.131
ACCTAGAT	0.065
CTGTTTTA	0.291
CAACATGC	0.0285
CGAGTGGA	-0.244
AAAAGGTC	-0.0913
GCACCGGA	-0.249
CCAATACC	0.154
CTTATTTA	0.391
TAGGCCGA	-0.0633
AGTTCTTG	0.0918

Sequence	PBM 8-mer E-score
CACTGCAC	0.054
ATGGTAAA	0.184
CGGAATAA	0.34
AAGATCGT	0.0076
CTTTTTAC	0.187
CTCTTTTA	0.244
AAAGATCC	0.0242
AGGTTCCG	-0.212
CAGGGTCG	-0.317
CCCGGATC	-0.232
TGCACAAA	0.0932
AGCCATAC	-0.0721
AATCCTCG	-0.157
AGTGTCTC	-0.00692
CCGTTTAA	0.246
ACCAGTTA	0.128
CGCTGTCA	-0.157
GCTGCCAA	-0.0483
ATATGGCA	0.104
CACCCACG	-0.143
GATGTTGC	0.0251
ACAGACTC	-0.155
CACACAGG	-0.06
GTTCTTCA	0.0611
GTGTGTGA	0.0621

Sequence	PBM 8-mer E-score
ATGGCAAC	-0.118
GAATGGTA	0.105
AAATCGTA	0.242
AGTGTCAG	0.0404
ACTCCATC	-0.0437
AAGTTAGG	0.28
ACTCGTCA	-0.0773
CTTAGGGA	-0.206
CCCCAACG	-0.245
CGAGTAAC	0.103
ACGTGCAT	0.055
CTAGCACA	-0.0407
TTCGACAA	0.124
ACTTCCCC	-0.0927
CAGCACAC	-0.145
ACAACAAG	0.138
GGACCCTA	-0.35
GCTGCGGA	-0.269
GTGTATCA	0.0684
CGCCGCCG	-0.158
ATCCAAAG	0.0454
AAGGGGGG	-0.344
ACTAGGGC	-0.0678
CAATCGTA	-0.0723
CACAGCGC	-0.214

Sequence	PBM 8-mer E-score
GTCCTAAC	0.0874
AAAATACG	0.184
CAATTTCA	0.274
CGGTCTAG	-0.106
GGAGGGCA	-0.309
TACTGGAA	0.0858
ATGGATGC	-0.0685
CAGTACTG	0.178
ATTAACCG	0.133
GACTCTAC	-0.0621
AGACCCTC	-0.3
CCCTTAAC	-0.0248
ATCACTTC	-0.0393
CATTCACG	-0.231
GGTGTGGA	-0.0873
GGACCTAA	-0.0894
CGTGGAAG	-0.142
CGCCTTAA	0.104
GGGGGACA	-0.175
CGCCGTGA	-0.208
CACGGGGC	-0.308
AGAGGTCA	-0.266
CGCCATGC	-0.26
GGGTAACA	0.134
CACGCGTC	-0.0566

Sequence	PBM 8-mer E-score
CCTAGTAC	-0.143
CTGCACCA	0.0109
CCAGGCAA	-0.103
GTGGTGAA	0.0236
TGCAACCA	-0.00824
CCTGGACA	-0.213
CTCATGCC	-0.304
ACGACGGG	-0.146
CTTTTGTA	0.198
AGCGAGAC	-0.104
GGTTATCA	0.155
AACTTTGT	0.257
CTTCTGGC	-0.158
ATTCCCCA	-0.0441
CAGTAACC	-0.0434
CACGGGCA	-0.18
CATTGAGA	-0.108
GGATTCCC	-0.207
AGCAAACA	0.0165
CAGCGTCA	-0.176
CCAGGTCA	-0.141
GGGTTAAC	0.101
CCTCTTAC	-0.199
TGGCTCAA	0.0143
AATCTGAT	0.13

Sequence	PBM 8-mer E-score
CATTGCGA	0.0384
AGTTCCTG	-0.0781
CGTTCAAA	0.0772
AACCATTG	-0.0493
ATCCTTGC	-0.157
CAGAATGA	0.0253
GAAATGAA	0.17
CCAGAACC	-0.0994
CCAAAGCA	-0.197
AATTACCC	0.241
CGACGAAG	-0.171
CTATAGAC	-0.0011
GTGTAGAA	-0.0558
AGCTTGGG	-0.149
GGTTTGCA	0.103
CCCTAGCA	-0.151
GCTCTGCC	-0.371
ACTACCTA	0.00906
CCCGAAGA	-0.116
CCAAACGA	0.00171
ATGGGCAG	-0.044
GCATCCGA	-0.257
AGTCGACC	-0.128
TACGGCCA	-0.0792
GCGAGAAC	-0.0686

Sequence	PBM 8-mer E-score
ACTTAGCT	0.112
ATCTGTAA	0.165
AACTAACG	0.265
ACCTGTCT	-0.217
ACAGCACA	-0.145
CGGCTTTA	-0.111
GCCCCGCA	-0.208
ACACCCCG	-0.143
GCCTAGGA	-0.264
CAATTGAG	0.0707
CTGCTTGC	-0.172
ATCTATCG	-0.126
ATAACTGC	0.286
AGCAAGTC	-0.0541
ACGGAGCT	-0.247
ATTTTCTG	0.031
AAGCCCCA	-0.191
CAAGAGAA	-0.0706
ACGACGTC	-0.145
CGTACTGA	-0.132
CGGACTGA	-0.29
GTAACACA	0.179
AACAGTAG	0.0539
CGCCCCTA	-0.147
AAAGTCGC	0.107

Sequence	PBM 8-mer E-score
AATCAGAG	-0.144
GGACTAAA	0.0564
CGATCGGC	-0.116
CACACCGC	-0.0177
AACATAGG	0.125
TAAACTGA	0.205
AGTAAGAG	-0.0127
ACGTCGGC	-0.331
CCTCCAAA	-0.246
GCGTCACA	-0.0519
ACCTATTC	-0.14
AAAGGCTA	-0.0155
ACCGCACA	-0.0584
AAGTCCGG	-0.181
GATTCTAA	0.108
AAATCGGA	-0.169
GTCATTGA	0.0278
CCTTTGCA	-0.118
GCTAAGTA	0.0978
CCGTATTC	0.118
AGCTGACA	-0.2
AGCGGCCT	-0.12
AGTTGTAG	0.137
GCTGCGCA	-0.181
ACGCTCGA	-0.106

Sequence	PBM 8-mer E-score
ACAAGGGA	-0.117
TGTGAACA	0.00407
AATTATGG	0.285
TGGTCAAA	0.00317
CCAGCCCC	-0.231
GTGTTGGA	-0.0408
CACCTTAA	-0.0188
CGGGTCAA	-0.218
CATCGTAC	-0.0572
GTCGACAC	-0.0976
TACGTAAA	0.178
ACATCCCA	-0.00783
CCGTTAGG	-0.212
AGGCCAAT	-0.0229
AGCTAACA	-0.075
CAATAGAC	0.0182
ATCCCTAC	-0.0788
GAGAGGGA	-0.253
AGGCGAAC	-0.0175
GAGAAGCA	-0.153
CTAATAAA	0.349
AACTAAGG	0.235
CGACCCTC	-0.228
GGCTTTGA	-0.0706
AAGGCGTG	-0.156

Sequence	PBM 8-mer E-score
GACGCCCA	-0.248
CCCGTAGA	-0.174
ACCACGGT	0.0026
ACAATCGC	-0.0204
AGGTCTAA	0.0157
ACATGCCC	-0.0526
AAAATACT	0.272
CAAGTCCG	-0.103
AAATATGT	0.348
CCCACCAG	-0.203
ATGAGTCA	0.00927
ATATTCAG	0.254
GCACCCCA	-0.183
ATGAATTG	0.099
GTCAGCGA	-0.0175
AATCAGGG	-0.058
ACGGGACG	-0.256
AGGACGAC	-0.19
CATACGCA	-0.0924
CACGGCCG	-0.25
GATTTTGA	-0.0219
AATTTATG	0.273
TATATAAA	0.47
ACCTCACC	-0.0474
CATTCTCA	0.0311

Sequence	PBM 8-mer E-score
ACTCATGA	-0.0138
GTTGATGA	0.0373
CCAATGGG	-0.204
AGATTACG	0.0614
TTTCCAAA	0.213
TATAATAA	0.477
AGACCTTA	-0.117
CAAACACA	0.134
AGGTCGCC	-0.219
AGAGTAGA	-0.0309
CGCGACGA	-0.182
CAAGCTAG	-0.0234
ACCGGTTC	-0.195
CATCTAGC	-0.0846
ATGAAGCG	-0.026
CACGTTCC	-0.11
AAACTTAT	0.381
AGGCAAGA	-0.05
TGGGTCAA	-0.073
CTTTATTA	0.402
CGACGACG	-0.0581
CATCCGCA	-0.214
AGATCAGC	-0.183
CCATTACC	0.0366
CGAAAATA	0.199

Sequence	PBM 8-mer E-score
GAGAGTTA	0.128
ATCTCTTC	0.0149
ACTCGCGC	-0.0914
CGCTGGTA	-0.0275
AACCACCT	-0.167
AAGCTTGG	-0.0821
ACGCCATG	-0.22
ACCCAAGT	-0.0943
AACTAGTC	0.0574
ATACTGGG	0.00507
AACGATCG	-0.162
AGGAGGAA	-0.174
CAGGAACC	-0.174
CTCTTCCC	-0.257
AGCGTGAC	-0.158
ATATCCAT	0.22
AATTGGTC	0.172
AGATCTAT	0.147
CACGTCAA	-0.104
ATTTCCAC	0.19
GAAACTTC	0.264
ATCCGTCC	-0.175
CGGGTACC	-0.269
AGTGCTGA	-0.0354
ACGGCGGC	-0.104

Sequence	PBM 8-mer E-score
CCCTTACC	-0.214
ACGAACCG	-0.179
AGCTCTTG	-0.156
ATTAAAGG	0.156
ACGCTAGG	-0.211
CTTTCGTA	-0.0421
GACGTACC	-0.151
AGCCTAAT	-0.0118
ATATATGA	0.439
AACAACGC	0.108
CGGTCCAG	-0.21
CACCCTTA	-0.023
ACGTCAAA	-0.037
GTATGATA	0.202
GCCAGGCA	-0.204
AGCATGTG	-0.075
AAGGCGGT	-0.127
AGGCTAGG	-0.203
TTGCACAA	0.0915
